# About 200 (0.062%) of roughly 320,000 compounds were called active. Inconclusive results, whose numbers are uncertain, are shown with a selection of clear calls. Calls come from the whole dose curve; as a rule, active = well fitted activation curve with a large enough effect; inconclusive = small, poorly fitted or top-dose-only effect; inactive = no such curve, though single readings can be large or run the other way. Potencies of inconclusive entries are left out as doubtful fits.
# Assay: qHTS assay for re-activators of p53 using a Luc reporter; note: nearly all actives have a fitted effect of over 45% in size
# Details: H1299 p53-A138V BP100-luciferase reporter, luminescence, 24 h; series mostly up to 92.2 µM
# Summary of the method: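 H1299 (p53-null), stable ts p53-A138V + BP100-Luc; 1000 cells/well, Opti-MEM/10% FBS; cpd 4 pt, 1:5; 24 h, 37 deg C, 5% CO2; detection reagent 10 min RT; luminescence.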
# Potency is the fitted concentration of half-maximal effect; tags give direction and shape of the fitted curve.
row,Compound,Potency
1,S=C(NCCc1ccccc1)Nc1ccc(Br)cc1,"inconclusive [activator, partial curve, poor fit]"
2,O=C(/C=C/c1ccco1)NCCc1ccccc1,"inconclusive [activator, partial curve, poor fit]"
3,Cc1c(-c2n[nH]c(=S)n2-c2ccc(C(F)(F)F)cc2)nnn1-c1ccccc1,inactive
4,CCN1C(=O)c2cccc3c(S(=O)(=O)N(C(=O)c4ccncc4)c4ccc(OC)cc4)ccc1c23,inactive
5,CCOc1ccc(C(=O)CC(C(=O)O)N2CCN(Cc3ccccc3)CC2)cc1 (stereo unspecified),"inconclusive [activator, single point]"
6,CCN(CC)CCOC(=O)c1cccc(OC)c1,"inconclusive [activator, partial curve, poor fit]"
7,O=C(Nc1ccc(Nc2ccccc2)cc1)c1ccco1,"inconclusive [activator, full curve, poor fit]"
8,CC(C)(C)OC(=O)n1cc(/C=N/NC(=O)c2ccco2)c2ccccc21,"inconclusive [activator, partial curve, poor fit]"
9,CN(C)CCCN(C(=O)c1ccc(S(=O)(=O)N2CCc3ccccc3C2)cc1)c1nc2c(F)cc(F)cc2s1,inactive
10,COc1cccc(NC(=S)NC(=O)c2c(Cl)c(C)nn2C)c1,"inconclusive [activator, partial curve, poor fit]"
11,O=C(CCN=C1NS(=O)(=O)c2ccccc21)Nc1ccc(F)cc1Cl,inactive
12,c1ccc(NCC2OCc3ccccc3CO2)cc1,"inconclusive [activator, partial curve, poor fit]"
13,O=C(O)CCc1ccc(-c2ccccc2)n1-c1cccc(O)c1,"inconclusive [activator, full curve, poor fit]"
14,C/C(N)=C(/C#N)C(=O)COC(=O)c1cc(C)n(-c2ccc(F)cc2)c1C,"inconclusive [activator, partial curve, poor fit]"
15,O=C(COC(=O)c1cc(-c2ccc(F)cc2)nc2ccccc12)NCC1CCCO1 (stereo unspecified),inactive
16,O=C(Nc1ccccc1C(=O)O)c1ccc(NC(=O)C2CC2)cc1,inactive
17,Cc1ccc(N=c2c([N+](=O)[O-])nn(-c3ccc(Cl)cc3)n2O)cc1C,"inconclusive [activator, full curve, poor fit]"
18,Oc1c(Cl)cc(Cl)cc1CNc1ccc(Br)cn1,"inconclusive [activator, full curve, poor fit]"
19,CN(C)CCCN(C(=O)c1ccc2c(c1)CCCC2)c1nc2c(F)cccc2s1,"inconclusive [activator, full curve, poor fit]"
20,Cc1c(Cl)cccc1NC(CC(=O)c1ccccc1)C(=O)O (stereo unspecified),"inconclusive [activator, partial curve, poor fit]"
21,CCOC(=O)c1ccc(NC(=O)N2CCCCCC2)cc1,inactive
22,Cc1nccn1CCc1n[nH]c(=S)n1Cc1ccccc1,inactive
23,COc1ccc(CNn2cnnc2)c(O)c1,"inconclusive [activator, single point]"
24,CC(=O)c1c(C)[nH]c(C(=O)CN2CCN(S(=O)(=O)c3ccccc3[N+](=O)[O-])CC2)c1C,inactive

row,Compound,Potency
1,Cc1oc(-c2ccccc2F)nc1CS(=O)(=O)CC(=O)N1CCCCCC1,inactive
2,CCc1nnc(NS(=O)(=O)c2ccc(N/C=C\C(=O)c3ccc(F)cc3)cc2)s1,inactive
3,COc1ccccc1NC(=O)Cn1c(C)nc2c(sc(=S)n2Cc2ccco2)c1=O,inactive
4,CC(C)c1cc(C(=O)Nc2cc(Cl)ccc2O)no1,"inconclusive [activator, partial curve, poor fit]"
5,COC(=O)c1ccccc1C(=O)N(Cc1cccnc1)CC1CCCN(C2CCCCC2)C1 (stereo unspecified),inactive
6,CC1C[C@@]2(NC(=O)NC2=O)C(C)CN1C (stereo partly specified),inactive
7,O=C(COc1ccc(Cl)cc1Cl)NC1CCSC1=O (stereo unspecified),"inconclusive [activator, partial curve, poor fit]"
8,COc1cc(/C=C(\C#N)C(=O)Nc2cccc(C(=O)O)c2)ccc1OCc1ccc(C)cc1,"inconclusive [activator, partial curve, poor fit]"
9,Cc1cc(C(=O)Nc2ccc(Cl)cc2)c(C)n1Cc1cccs1,"inconclusive [activator, partial curve, poor fit]"
10,O=c1oc(-c2cccs2)nc2ccccc12,inactive
11,CC/C(=N\NC(=O)c1ccc2c(c1)OCO2)c1ccccc1,"inconclusive [activator, partial curve, poor fit]"
12,CC(C)N(C(=O)Nc1ccc2nccnc2c1)C(C)C,"inconclusive [activator, single point]"
13,Nc1ccccc1NC1=CC(=O)CC(c2ccccc2)C1 (stereo unspecified),"inconclusive [activator, single point]"
14,Cc1ccn(-c2cccc(-n3ccc(C)n3)n2)n1,"inconclusive [activator, partial curve, poor fit]"
15,COc1ccccc1C(=O)NCC1CCN(c2ccc(S(=O)(=O)N3CCOCC3)cc2)CC1,"inconclusive [activator, single point]"
16,COCCCn1c(C)cc(C(=O)COC(=O)C23CC4CC(CC(O)(C4)C2)C3)c1C,"inconclusive [activator, full curve, poor fit]"
17,Cc1ccccc1CNC(=O)Cc1ccccc1[N+](=O)[O-],"inconclusive [activator, full curve, poor fit]"
18,O=C(c1cc(-c2ccc(Br)cc2)on1)N1CCCCCC1,"inconclusive [activator, partial curve, poor fit]"
19,COc1ccc(/C=N/NC(=O)c2cccnc2)cc1CN1CCN(c2ccc(F)cc2)CC1,inactive
20,CC(=O)N1CC(C)Sc2ccc(S(=O)(=O)NCCc3ccc(C)cc3)cc21 (stereo unspecified),inactive
21,N#CC(=C1CCCC1)c1nc(-c2ccccc2O)cs1,"inconclusive [activator, full curve, poor fit]"
22,CCOC(=O)c1ccc(N2C(=O)C(O)=C(C(C)=O)C2c2ccc([N+](=O)[O-])cc2)cc1 (stereo unspecified),"inconclusive [activator, single point]"
23,Cc1cc(C)cc(NC(=O)/C=C/c2ccc([N+](=O)[O-])s2)c1,"inconclusive [activator, partial curve, poor fit]"
24,CC1CCC/C(=C(\C#N)c2nc(-c3cc4ccccc4oc3=O)cs2)C1 (stereo unspecified),"inconclusive [activator, full curve, poor fit]"

row,Compound,Potency
1,COc1ccccc1C(=O)NCc1ccc(-c2nc3ccccc3s2)cc1,"inconclusive [activator, partial curve, poor fit]"
2,COc1ccc(C(=O)OCC(=O)c2ccc[nH]2)c(OC)c1,"inconclusive [activator, full curve, poor fit]"
3,OCCOCCNc1ncnc2c1cnn2-c1ccc(Cl)cc1,inactive
4,O=C(Nc1cccc([N+](=O)[O-])c1)c1ccc2ccccc2c1O,"inconclusive [activator, full curve, poor fit]"
5,COc1ccc(Cl)cc1C(=O)CSc1nnnn1C1CCCC1,inactive
6,Cn1/c(=N\NC(=O)c2ccccc2Cl)sc2ccccc21,"inconclusive [activator, single point]"
7,COc1cccc(OC)c1C(=O)OCC(=O)N(C)c1ccccc1,inactive
8,CC(C)CN=Cc1c(O)c([N+](=O)[O-])cc2oc3c(c12)CCCC3,inactive
9,O=C(Nc1ccccc1)Nc1ccc(Br)c(Cl)c1,"inconclusive [activator, partial curve, poor fit]"
10,Cc1ccc(-c2noc(CSc3ccccc3)n2)cc1,"inconclusive [activator, full curve, poor fit]"
11,COc1ccccc1C(=O)Nc1ccnn1C1CCN(C(=O)C2CCOC2)CC1 (stereo unspecified),"inconclusive [activator, partial curve, poor fit]"
12,Cc1cc(OCC(=O)N2CCc3ccccc3C2)c2c(-c3ccccc3)cc(=O)oc2c1,inactive
13,CCCc1nn(C)c(C(=O)Nc2cccc(CC)c2)c1Cl,"inconclusive [activator, partial curve, poor fit]"
14,CCOC(=O)C1C(c2ccccc2)NC(=S)NC1(C)O (stereo unspecified),inactive
15,Nc1nc(NC(=O)c2ccco2)nn1-c1ccccc1,"inconclusive [activator, partial curve, poor fit]"
16,Cc1nn(C)c(Cl)c1S(=O)(=O)N[C@@H](c1ccccc1)[C@]1(C)C[C@H]1[C@@H](C)C(=O)Nc1ccc2ccccc2c1,inactive
17,Cc1cc(NC(=O)c2ccccc2)no1,inactive
18,Nc1nc(-c2cccs2)cs1,inactive
19,S=C(Nc1ccc(CN2CCCCC2)cc1)Nc1cccc(Cl)c1Cl,"inconclusive [activator, partial curve, poor fit]"
20,Fc1ccc(CN2CCN3CCCC3C2C2CCCCC2)cc1F (stereo unspecified),inactive
21,CCOc1cc(/C=C2/C(=O)ON=C2C)ccc1OCc1ccccc1F,inactive
22,Cn1c(/C(C#N)=C(\O)c2cccc(F)c2)nc2ccccc21,inactive
23,COc1ccc(OC)c2c(N3CC(C)OC(C)C3)cc(C(F)(F)F)nc12 (stereo unspecified),"inconclusive [activator, partial curve, poor fit]"
